Test results published in PubChem BioAssay AID360 (National Center for Advancing Translational Sciences (NCATS), 2006).
In all, about 48,000 compounds went through this assay and about 550 (1.1%) were called active. Another 4% or so got no clear call; they are omitted. Cut-off read from the data, not from the text of the source: active = potency below about 15 µM; inconclusive = mostly about 16 µM to 33 µM; inactive = weaker than that. This is one part of the list.

What follows are molecules tested against Lysosomal acid glucosylceramidase (Homo sapiens) (UniProt P04062) (assay: Glucocerebrosidase). Conditions: purified enzyme, resorufin glucoside fluorescence (screen aimed at inhibitors), 20 min; series mostly up to 77 µM.
In short: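 Compounds titrated against 0.2 nM normal enzyme, 30 uM resorufin beta-D-glucopyranoside substrate, citrate/phosphate buffer with taurocholate and tween-20, pH 5.9. Reaction ran 20 min at room temperature; fluorescence (Ex 548/Em 600) gave AC50.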
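Note: the screen sought inhibitors.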
Potency is the fitted concentration of half-maximal effect.

Chain of UniProt P04062 (P04062 whole entry, looked up): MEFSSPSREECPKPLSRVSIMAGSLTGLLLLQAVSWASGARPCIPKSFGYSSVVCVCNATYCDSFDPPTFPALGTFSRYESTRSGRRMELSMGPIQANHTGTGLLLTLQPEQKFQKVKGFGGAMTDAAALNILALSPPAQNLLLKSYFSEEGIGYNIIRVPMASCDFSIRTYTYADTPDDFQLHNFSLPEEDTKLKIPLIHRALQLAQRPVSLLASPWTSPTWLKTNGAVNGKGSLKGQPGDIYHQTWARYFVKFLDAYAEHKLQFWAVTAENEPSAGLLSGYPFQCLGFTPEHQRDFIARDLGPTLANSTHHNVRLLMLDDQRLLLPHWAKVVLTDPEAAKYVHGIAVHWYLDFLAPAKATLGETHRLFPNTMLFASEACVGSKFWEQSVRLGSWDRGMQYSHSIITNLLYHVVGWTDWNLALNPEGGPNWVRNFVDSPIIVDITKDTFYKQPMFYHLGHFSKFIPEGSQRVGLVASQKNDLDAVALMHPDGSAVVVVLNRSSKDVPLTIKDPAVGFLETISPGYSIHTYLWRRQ

Structure (SMILES)	Potency
Cc1cccc(C(CC(=O)N2CCCC2)c2ccccc2)c1O (stereo not drawn)	inactive: > 76.9 µM
CSc1ncc(Cl)c(C(=O)Nc2nnc(SC)s2)n1	inactive: > 76.9 µM
CC(=O)N(CC1CCCO1)c1nnc(-c2ccccn2)s1 (stereo not drawn)	inactive: > 76.9 µM
O=C(O)C1C2CCC(C2)C1C(=O)NCc1ccco1 (stereo not drawn)	inactive: > 76.9 µM
CC(Sc1nc2ccccc2o1)C(=O)O (stereo not drawn)	inactive: > 76.9 µM
CCOC(=O)C1CCCN(Cc2nc(N)nc(Nc3ccc(C)cc3)n2)C1 (stereo not drawn)	inactive: > 76.9 µM
CC1Cc2ccccc2N1C(=O)CSc1nnc(Cn2nnc3ccccc32)n1C (stereo not drawn)	inactive: > 76.9 µM
COc1ccc(N2CCN(CC(=O)Nc3ccc(-n4cnnn4)cc3)CC2)cc1	inactive: > 76.9 µM
COC(=O)c1ccc(C(=O)OC)c(NC(=O)c2oc(C)nc2C)c1	inactive: > 76.9 µM
Cc1cc(C(=O)CN2C(=O)c3ccccc3S2(=O)=O)c(C)n1CC1CCCO1 (stereo not drawn)	inactive: > 76.9 µM
CCOc1ccc(C)cc1S(=O)(=O)Nc1cccnc1	inactive: > 76.9 µM
Nc1nc(C2CCCN2S(=O)(=O)c2ccc(Cl)cc2)cs1 (stereo not drawn)	inactive: > 76.9 µM
CS(=O)(=O)NCc1nnc(SCc2ccccc2C(F)(F)F)o1	inactive: > 76.9 µM
COc1ccc(CCNC(=O)c2oc3ccc(S(=O)(=O)N4CCOCC4)cc3c2C)cc1OC	inactive: > 76.9 µM
N#Cc1cc2c(=O)n3ccccc3nc2n(CCCN2CCOCC2)c1=O	inactive: > 76.9 µM
c1nc(NCCN2CCOCC2)c2sc3nc(N4CCOCC4)c4c(c3c2n1)CCC4	inactive: > 76.9 µM
CN(C)S(=O)(=O)c1ccc(C(=O)Nc2ccccc2C(=O)O)cc1	inactive: > 76.9 µM
CC(C)COc1ccc(C(=O)N(Cc2ccco2)C2CCS(=O)(=O)C2)cc1 (stereo not drawn)	inactive: > 76.9 µM
COc1ccccc1NC1=NCC(=O)N1Cc1ccccc1	inactive: > 76.9 µM
COc1ccc(C2C3=C(Nc4ncnn42)c2ccccc2CC3)cc1OC (stereo not drawn)	inactive: > 76.9 µM

Structure (SMILES)	Potency
Cn1nnc(C(O)CNCc2cccs2)n1 (stereo not drawn)	inactive: > 76.9 µM
CCN(CC)CCNC(=O)Cn1c(-c2ccccn2)nc2ccccc21	inactive: > 76.9 µM
COC(=O)COc1ccc(S(=O)(=O)Nc2ccc3c(c2)OCCO3)cc1Cl	active: 13.9 µM
OCC#Cc1cnc2ccccc2c1	inactive: > 76.9 µM
CC(c1nnc(SCC(=O)NC(=O)NCc2ccco2)n1-c1ccc(Cl)cc1)N(C)C (stereo not drawn)	inactive: > 76.9 µM
Cc1ccc(NC(=O)c2ccccc2F)nc1	inactive: > 76.9 µM
Cc1cccc(-c2nsc(SCC(=O)NCc3ccco3)n2)c1	inactive: > 76.9 µM
COC(=O)c1cc(COC(=O)c2cccnc2SC)oc1C	inactive: > 76.9 µM
COc1ccc(C(=O)NCCCn2ccnc2)cc1	inactive: > 76.9 µM
CC1(CC(=O)O)C(=O)N=C2C=CC=CN21 (stereo not drawn)	inactive: > 76.9 µM
CCn1c(SCC(=O)Nc2nccs2)nnc1-c1ccc(C)cc1	inactive: > 76.9 µM
Cc1c(OCc2nn[nH]n2)ccc2c3c(c(=O)oc12)CCC(C)C3 (stereo not drawn)	inactive: > 76.9 µM
Cn1c(=O)n(C)c2cc(NC(=O)c3cc4ccccc4o3)ccc21	inactive: > 76.9 µM
CCOC(=O)c1ccc(CNC(=O)c2cc3cccc(OC)c3oc2=O)o1	inactive: > 76.9 µM
Cc1ccccc1C(=O)Nc1cccc(N)c1	inactive: > 76.9 µM
Cc1[nH]c2ccccc2c1C(=O)CN1CCCCC1CCO (stereo not drawn)	inactive: > 76.9 µM
CC(O)c1cccc(NC2=CC(=O)CC(C)(C)C2)c1 (stereo not drawn)	inactive: > 76.9 µM
CCOCCCn1c(=NC(=O)c2cccnc2)c(C(=O)OCC)cc2c(=O)n3ccccc3nc21	inactive
O=C(C1CCN(S(=O)(=O)c2cccc3nsnc23)CC1)N1CCN(c2ccccc2F)CC1	inactive: > 76.9 µM
Cc1ccc(-c2csc(NC(=O)CSc3ncn(-c4ccccc4)n3)n2)cc1	inactive: > 76.9 µM

Structure (SMILES)	Potency
Nn1c(SCC(=O)Nc2ccc3c(c2)OCCO3)nnc1-c1ccccn1	inactive: > 76.9 µM
CCOC(=O)Cc1csc(SCC(=O)N2CCN(c3ccc(OC)cc3)CC2)n1	inactive: > 76.9 µM
CC(C)(C)NC(=O)C1CCN(S(=O)(=O)c2ccc(Br)cc2)CC1	inactive: > 76.9 µM
Cc1ccccc1-n1nnnc1SCC(N)=O	inactive: > 76.9 µM
O=C(O)CCC(=O)N1CCN(c2cccc(Cl)c2)CC1	inactive: > 76.9 µM
O=C(NCc1ccc2c(c1)OCO2)c1ccc2c(c1)C(=O)N(Cc1cccnc1)C2=O	inactive: > 76.9 µM
CC(C)(C)C(=O)Nc1c2c(nc3c1CCC3)CCCC2	inactive: > 76.9 µM
Cn1c(SCC(=O)Nc2ccc(N3CCOCC3)c(Cl)c2)nnc1-c1ccccc1	inactive: > 76.9 µM
COc1ccccc1C1C(C(=O)c2cc3ccccc3o2)=C(O)C(=O)N1CCN1CCOCC1 (stereo not drawn)	inactive: > 76.9 µM
COc1cc2[nH]c3c(N4CCC(C(N)=O)CC4)ncnc3c2cc1OC	inactive: > 76.9 µM
N#Cc1ccccc1NC(=O)COC(=O)c1ccc(S(=O)(=O)N2CCCC2)cc1	inactive: > 76.9 µM
CCOC(=O)c1sc(NC(=O)CSc2nncs2)c(C(=O)OCC)c1C	active: 9.61 µM
Cc1onc(-c2c(Cl)cccc2Cl)c1C(=O)NCCCN1CCOCC1	inactive: > 76.9 µM
N#Cc1sc2nc3c(c(-c4cccnc4)c2c1N)CCC3	inactive: > 76.9 µM
C=CCN1C(=O)C2C(C(=O)NCc3ccccc3)C3(C)C=CC2(O3)C1C(=O)NC(C)(C)C (stereo not drawn)	inactive: > 76.9 µM
CCOC(=O)C1=C(NC(=O)c2ccc(Br)o2)Nc2ccccc2N=C1	inactive: > 76.9 µM
CCn1cc(C(=O)NCc2ccc(C)o2)c2cc(OC)c(OC)cc2c1=O	inactive: > 76.9 µM
CCOC(=O)c1cnc2nc(COc3ccccc3)[nH]n2c1=O	inactive: > 76.9 µM
